Out of some 310,000 compounds screened, about 14,000 (4.5%) showed an effect of 50% or more. Effects have a minus sign here. Some of the results follow.
What follows are compounds tested against human ether-à-go-go-related gene (hERG) potassium channel (human, UniProt Q12809) (assay: primary screen, population patch clamp on CHO cells stably expressing hERG).
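Note: peak tail current of the secondary pulse compared with the same well before compound.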

Sequence of human ether-à-go-go-related gene (hERG) potassium channel (Q12809 whole entry, looked up): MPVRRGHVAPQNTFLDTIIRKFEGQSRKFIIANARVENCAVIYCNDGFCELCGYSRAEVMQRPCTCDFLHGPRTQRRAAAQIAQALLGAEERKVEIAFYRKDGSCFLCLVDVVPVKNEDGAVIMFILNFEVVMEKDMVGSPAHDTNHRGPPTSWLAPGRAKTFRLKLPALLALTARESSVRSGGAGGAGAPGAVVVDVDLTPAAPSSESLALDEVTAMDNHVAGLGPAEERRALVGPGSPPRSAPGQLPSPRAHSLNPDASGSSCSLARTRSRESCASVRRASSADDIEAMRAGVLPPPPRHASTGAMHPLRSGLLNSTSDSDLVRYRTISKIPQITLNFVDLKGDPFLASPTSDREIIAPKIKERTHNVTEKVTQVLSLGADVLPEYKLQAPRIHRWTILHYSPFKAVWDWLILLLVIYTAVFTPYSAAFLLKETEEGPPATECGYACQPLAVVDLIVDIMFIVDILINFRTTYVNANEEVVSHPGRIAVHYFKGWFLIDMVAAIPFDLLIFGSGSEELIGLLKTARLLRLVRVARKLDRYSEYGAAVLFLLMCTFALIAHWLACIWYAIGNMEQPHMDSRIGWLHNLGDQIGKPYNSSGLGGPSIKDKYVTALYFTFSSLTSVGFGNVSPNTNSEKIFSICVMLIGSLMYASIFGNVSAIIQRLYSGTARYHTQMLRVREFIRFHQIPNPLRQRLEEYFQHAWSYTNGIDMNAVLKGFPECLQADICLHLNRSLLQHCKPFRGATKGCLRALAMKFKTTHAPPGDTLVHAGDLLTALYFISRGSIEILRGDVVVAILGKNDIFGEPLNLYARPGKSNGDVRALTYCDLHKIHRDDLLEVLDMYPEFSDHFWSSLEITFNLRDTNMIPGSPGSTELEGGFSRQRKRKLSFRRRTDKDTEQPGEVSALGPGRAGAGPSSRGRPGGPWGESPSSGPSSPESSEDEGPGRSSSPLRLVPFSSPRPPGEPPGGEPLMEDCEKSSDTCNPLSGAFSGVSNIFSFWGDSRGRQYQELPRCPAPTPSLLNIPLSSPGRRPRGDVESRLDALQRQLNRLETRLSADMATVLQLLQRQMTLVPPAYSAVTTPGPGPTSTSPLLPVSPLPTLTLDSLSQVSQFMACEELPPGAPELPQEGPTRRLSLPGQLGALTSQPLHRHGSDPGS

Going from `O=[N+]([O-])c1ccccc1N/N=C1\CCc2ccccc21` to `CSc1ccccc1C(=O)Nc1ccccc1C`, the “hERG current change (%, negative = inhibition) at 10uM” value rises from 9.66% to 19.7%.

Going from `C(#Cc1ccccc1)CN1CCCCC1.Cl` to `CCOC(=O)C1CCN(S(=O)(=O)Cc2ccccc2)CC1`, the “hERG current change (%, negative = inhibition) at 10uM” value falls from 0.475% to -8.61%.

Compared with `CCOc1ccc(-c2n[nH]c(C)c2Oc2ccc(OC)cc2)c(O)c1`, `CCOc1nc(NCCc2ccc(OC)c(OC)c2)nc(N2CCN(c3ccc(OC)cc3)CC2)n1` is higher in “hERG current change (%, negative = inhibition) at 10uM” value: -6.31% for the first, -3.79% for the second.

Compared with `O=C(CSc1nc(Nc2ccccc2)nc(N2CCOCC2)n1)Nc1ccc([N+](=O)[O-])cc1`, `O=C(CSc1nc2ccc([N+](=O)[O-])cc2[nH]1)NCCc1ccccc1` is lower in “hERG current change (%, negative = inhibition) at 10uM” value: 9.65% for the first, -22.7% for the second.

Compared with `CCOC(=O)Cn1c(=O)c2c(nc3n2CCS3)n(C)c1=O`, `Cc1csc(SCCn2c(N3CCOCC3)nc3c2c(=O)[nH]c(=O)n3C)n1` is higher in “hERG current change (%, negative = inhibition) at 10uM” value: 9.98% for the first, 13.7% for the second.

Going from `CC(=O)Nc1cccc(/C(C)=N/N2C(C)CCCC2C)c1` (centres unmarked) to `CN(C)c1cccc(C(=O)OCC(=O)NCC2CCCO2)c1` (centres unmarked), the “hERG current change (%, negative = inhibition) at 10uM” value falls from 15.6% to 6.36%.

First: COc1ccc(N2CCN(C(=O)COC(=O)c3ccc(C)o3)CC2)cc1
Second: COc1ccc(CNC(=O)C(=O)c2cn(CC(=O)N3CCOCC3)c3ccccc23)cc1
The “hERG current change (%, negative = inhibition) at 10uM” value of the first is higher: 2.97% for the first, 2.82% for the second.

Compared with `COc1cc(/C=C/C(=O)N2CCCN(C(=O)/C=C/c3cc(OC)c(OC)c(OC)c3)CC2)cc(OC)c1OC`, `CCOC(=O)C1CCCN(C(=O)c2cc3c(OC)c(OC)c(OC)cc3[nH]2)C1` (centres unmarked) is higher in “hERG current change (%, negative = inhibition) at 10uM” value: -0.809% for the first, 10.4% for the second.

First: O=C(NCc1cccnc1)C1c2ccccc2C(=O)N1Cc1ccco1 (centres unmarked)
Second: Cc1ccc(CSC2=Nc3ccccc3C3=NC(CCC(=O)NCc4ccco4)C(=O)N23)cc1 (centres unmarked)
The “hERG current change (%, negative = inhibition) at 10uM” value of the first is higher: -8.33% for the first, -68.8% for the second.

Compared with `O=C(O)c1ccccc1Cc1nc2cc(Cl)ccc2c(=O)[nH]1`, `C=CCn1c(SCc2nc3ccccc3c(=O)[nH]2)nc2sc3c(c2c1=O)CCCC3` is lower in “hERG current change (%, negative = inhibition) at 10uM” value: 18.8% for the first, 2.93% for the second.

Compared with `Oc1cccc2ccc(/C=C/c3c(F)cccc3Cl)nc12`, `Nc1nc2ccccc2n1CCOc1ccc(F)cc1` is lower in “hERG current change (%, negative = inhibition) at 10uM” value: 34.1% for the first, -67.9% for the second.

First: CCOC(=O)C1CCN(C(=O)COC(=O)c2ccc(Br)o2)CC1
Second: COC(=O)C1CCN(C(=O)COC(=O)c2cc(-c3ccccc3)nc3ccc(OC)cc23)CC1
The “hERG current change (%, negative = inhibition) at 10uM” value of the first is higher: -3.64% for the first, -20.1% for the second.

Compared with `O=C1CC(NS(=O)(=O)c2cccnc2)CN1c1ccccc1` (centres unmarked), `O=S(=O)(c1ccccc1)N1N=C(c2ccc(Br)cc2)CC1c1ccco1` (centres unmarked) is lower in “hERG current change (%, negative = inhibition) at 10uM” value: 6.53% for the first, -24.2% for the second.

Going from `O=C(CCNC(=O)Cn1ccc2ccccc2c1=O)NCCCN1CCN(c2ccc(F)cc2)CC1` to `COCCCNC(=O)/C(C#N)=C/c1c(N2CCN(C)CC2)nc2ccccn2c1=O`, the “hERG current change (%, negative = inhibition) at 10uM” value rises from 9.35% to 40.4%.

Going from `CC(C)(C)OC(=O)NCCCCCNC(=O)c1[nH]cnc1C(=O)N[C@@H](Cc1ccccc1)C(=O)OCc1ccccc1` to `CCN(CC)c1nc2ccccc2c(N)c1-c1ccccc1.O=C(O)C(=O)O`, the “hERG current change (%, negative = inhibition) at 10uM” value falls from 3.68% to -77%.

Going from `COc1ccc(OC)c(NC(=O)c2ccc(Cl)cc2)c1` to `COc1ccc(CCNC(=O)CSc2nc3cc(Cl)ccc3o2)cc1OC`, the “hERG current change (%, negative = inhibition) at 10uM” value falls from -5.32% to -6.21%.

Compared with `CCn1c(=O)c2cc(C(=O)NCC(OC)OC)sc2c2ccccc21`, `Cc1cc(C)c(NN=c2c(=O)c3ccccc3c2=O)c(C)c1` is lower in “hERG current change (%, negative = inhibition) at 10uM” value: 0.202% for the first, -6.01% for the second.

Going from `Cc1ccc(C(=O)NCc2nnc3c(C(F)(F)F)cc(Cl)cn23)o1` to `Cc1nnc2sc(-c3ccc(NC(=O)c4ccc(-c5ccc(Cl)cc5Cl)o4)cc3)nn12`, the “hERG current change (%, negative = inhibition) at 10uM” value rises from 3.18% to 13.8%.

First: CC(C)Sc1nnc(Nc2ccccc2)s1
Second: CC(C)COC(=O)Nc1nnc(Cc2ccccc2)s1
The “hERG current change (%, negative = inhibition) at 10uM” value of the first is lower: -8.03% for the first, 3.8% for the second.

Compared with `CCOc1ccccc1/C=N/NC(=O)c1cccc(S(=O)(=O)N(CC)CC)c1`, `Cc1ccc(S(=O)(=O)NNC(=O)C2CCN(Cc3ccccc3)CC2)cc1` is higher in “hERG current change (%, negative = inhibition) at 10uM” value: -40.3% for the first, -15.4% for the second.

Going from `CC(=O)CC(=O)Nc1ncccn1` to `CCn1c(C)nc2cc(C(=O)NNC(=O)Nc3ccc(Cl)c(Cl)c3)ccc21`, the “hERG current change (%, negative = inhibition) at 10uM” value falls from 31.9% to 20.2%.

Compared with `C=CCn1c(SCC(=O)Nc2c(C)n(C)n(-c3ccccc3)c2=O)nc2sc(C)c(C)c2c1=O`, `O=C(CSc1nc2sc3c(c2c(=O)n1-c1ccccc1)CCCC3)N/N=C/c1ccccc1C(=O)O` is higher in “hERG current change (%, negative = inhibition) at 10uM” value: -31.4% for the first, 4.98% for the second.

First: c1ccc(Nc2ncnc3[nH]ncc23)cc1
Second: S=C(Nc1ccccc1)Nc1ccc2cn[nH]c2c1
The “hERG current change (%, negative = inhibition) at 10uM” value of the first is higher: 10.4% for the first, -14.5% for the second.

Compared with `NS(=O)(=O)c1ccc(NC(=O)c2cc(-c3cc(Cl)ccc3O)n[nH]2)cc1`, `CN(c1ccccc1)S(=O)(=O)c1ccc(Cl)c(C(=O)Nc2ccc(-c3nc4ccccc4[nH]3)cc2)c1` is lower in “hERG current change (%, negative = inhibition) at 10uM” value: 15.7% for the first, 11.7% for the second.

First: C=CCOC(=O)C1=C(C)NC(=O)NC1/C=C/c1ccccc1 (centres unmarked)
Second: O=C(NCc1ccco1)/C(=C\C=C\c1ccccc1)NC(=O)c1ccco1
The “hERG current change (%, negative = inhibition) at 10uM” value of the first is higher: 5.04% for the first, -38.3% for the second.

Going from `CCC(C(=O)N1CCN(Cc2ccc3c(c2)OCO3)CC1)n1c(=O)[nH]c2ccccc2c1=O` (centres unmarked) to `Cc1ccccc1CS(=O)(=O)c1cn(CC(=O)N2CCOCC2)c2ccccc12`, the “hERG current change (%, negative = inhibition) at 10uM” value rises from -7.51% to -7.5%.

Going from `Cc1ccc2nc(SCC(=O)N3CCOCC3)[nH]c2c1` to `Cc1ccc2nc(NC(=O)C3CCN(S(=O)(=O)c4ccc5c(c4)oc(=O)n5C)CC3)sc2c1`, the “hERG current change (%, negative = inhibition) at 10uM” value falls from 5.44% to -2.35%.

Going from `C/C=C/c1ccc(OCCCNC(C)CC)c(OC)c1.O=C(O)C(=O)O` (centres unmarked) to `COc1ccc(CCNC(=O)CN(c2cc([N+](=O)[O-])ccc2OC)S(C)(=O)=O)cc1OC`, the “hERG current change (%, negative = inhibition) at 10uM” value rises from -14% to 7.46%.

First: Cc1cc(C)c(S(=O)(=O)N2CCOC2CNC(=O)C(=O)NCc2ccccn2)c(C)c1 (centres unmarked)
Second: Cc1cc(C)cc(N(CC(=O)NCc2cccnc2)S(C)(=O)=O)c1
The “hERG current change (%, negative = inhibition) at 10uM” value of the first is higher: 12.1% for the first, -1.95% for the second.

First: Cc1nnsc1C(=O)NC1CCCc2c1cnn2-c1cc(F)cc(F)c1 (centres unmarked)
Second: COc1cc(OC)cc(-n2nnnc2SCC(=O)N2CCCc3ccccc32)c1
The “hERG current change (%, negative = inhibition) at 10uM” value of the first is lower: -12.1% for the first, 2.12% for the second.

First: CCCc1cc(-c2n[nH]c(=S)n2-c2cccc(C)c2)cs1
Second: Cc1ccc(-n2c(C)nn(CCOc3ccccc3)c2=O)cc1
The “hERG current change (%, negative = inhibition) at 10uM” value of the first is higher: 20.3% for the first, 1.54% for the second.

First: O=C(NCCN1CCOCC1)C(=O)NCc1ccco1
Second: CCCC(C)NC(=O)COC(=O)c1ccc2c(c1)C(=O)N(Cc1ccco1)C2=O (centres unmarked)
The “hERG current change (%, negative = inhibition) at 10uM” value of the first is higher: 19.5% for the first, 15.8% for the second.

Compared with `COc1ccc2nc(/C=N/NC(=O)[C@H](CCSC)NC(=O)OC(C)(C)C)ccc2c1`, `CCc1c(C)nc(Nc2nc(C)c3ccc(OC)cc3n2)[nH]c1=O` is higher in “hERG current change (%, negative = inhibition) at 10uM” value: -59.7% for the first, 8.18% for the second.

First: CCOC(=O)C1CCCN(c2c(Nc3ccc(C)c(C)c3)c(=O)c2=O)C1 (centres unmarked)
Second: CCOC(=O)N1CCN(c2c(NCc3ccc(Cl)cc3)c(=O)c2=O)CC1
The “hERG current change (%, negative = inhibition) at 10uM” value of the first is lower: -25.1% for the first, -17% for the second.

First: O=C(O)CC(O)C(=O)O (centres unmarked)
Second: CCn1cc(CNC(=O)C2C3CCC(C3)C2C(=O)O)cn1 (centres unmarked)
The “hERG current change (%, negative = inhibition) at 10uM” value of the first is higher: 15% for the first, 14.4% for the second.

Compared with `Cc1nc2c(-c3ccc(Cl)cc3)cnn2c(N)c1-c1ccc(F)cc1`, `COc1ccccc1N1CCN(C(=O)c2ccc(-c3ccccc3)cc2)CC1` is lower in “hERG current change (%, negative = inhibition) at 10uM” value: 22.1% for the first, -5.25% for the second.

First: CCCCNc1c(N)n(CCC)c(=O)[nH]c1=O
Second: COC(=O)Cc1cc(=O)n2[nH]c(SC)nc2n1
The “hERG current change (%, negative = inhibition) at 10uM” value of the first is higher: 25.5% for the first, 9.22% for the second.

First: CN(CC(=O)Nc1cccc(F)c1)C(=O)C1CCN(S(=O)(=O)c2ccc3c(c2)OCCO3)CC1
Second: CCc1ccc(S(=O)(=O)N2CCN(C(=O)c3cccnc3)CC2)cc1
The “hERG current change (%, negative = inhibition) at 10uM” value of the first is higher: -8.39% for the first, -10.5% for the second.

Going from `O=C(CSCc1ccccc1Br)NC1CC1` to `CC(C)OCCCNC(=O)c1ccc(CN2CCc3ccccc3C2)cc1`, the “hERG current change (%, negative = inhibition) at 10uM” value falls from 8.73% to -13.2%.

First: CN1CCN(c2nc(-c3ccccc3)ncc2S(=O)(=O)c2ccccc2)CC1
Second: Cc1ccc(Cl)cc1N1CCN(C(=O)C2CCC(=O)N(C3CCCCCC3)C2)CC1 (centres unmarked)
The “hERG current change (%, negative = inhibition) at 10uM” value of the first is lower: -63.2% for the first, -45.6% for the second.

First: COc1ccc(-c2csc(NC(=O)CN3C(=O)CCC3=O)n2)cc1OC
Second: Cc1cc(C)cc(C(=O)NC(CC(N)=O)c2ccc(NC3CCCC3)c([N+](=O)[O-])c2)c1 (centres unmarked)
The “hERG current change (%, negative = inhibition) at 10uM” value of the first is lower: 11.4% for the first, 13.2% for the second.

Compared with `CC(=O)N1N=C(c2ccc(C)cc2)CC1c1ccco1` (centres unmarked), `O=C(NCC12CC3CC(CC(C3)C1)C2)c1nn2c(c1Cl)NC(c1ccco1)CC2C(F)(F)F` (centres unmarked) is lower in “hERG current change (%, negative = inhibition) at 10uM” value: 10.7% for the first, 8.61% for the second.

Compared with `Cc1ccc(C(=O)O)cc1NC(=S)NC(=O)c1ccc([N+](=O)[O-])cc1Cl`, `O=C(c1cccc(C(F)(F)F)c1)N1CCN(C2CCCCC2)CC1` is lower in “hERG current change (%, negative = inhibition) at 10uM” value: 10.1% for the first, -27.1% for the second.

Reference: PMC4336329 (PLoS ONE, 2015)
